{
  "source": "PubChem BioAssay AID624417",
  "about": "(National Center for Advancing Translational Sciences (NCATS), 2012)",
  "note": "Screen size: about 410,000 compounds; about 6,400 (1.6%) were called active. Inconclusive means that the source gave no clear call. Such entries were picked first, then a sample of the others. Calls follow the shape of the dose curve; as a rule, active = well fitted inhibition curve with a large enough effect; inconclusive = small, poorly fitted or top-dose-only effect; inactive = no such curve, though single readings can be large or run the other way. Potencies of inconclusive entries are left out as doubtful fits. % is scaled to controls: 0 for no effect and ±100 for the full control effect; potency is read from the fitted curve at half-maximal effect; tags tell the direction and shape of the fitted curve.",
  "data": [
    {"molecular_target": "Glucagon-like peptide 1 receptor (Homo sapiens) (UniProt P43220)", "sequence (P43220 whole entry, looked up)": "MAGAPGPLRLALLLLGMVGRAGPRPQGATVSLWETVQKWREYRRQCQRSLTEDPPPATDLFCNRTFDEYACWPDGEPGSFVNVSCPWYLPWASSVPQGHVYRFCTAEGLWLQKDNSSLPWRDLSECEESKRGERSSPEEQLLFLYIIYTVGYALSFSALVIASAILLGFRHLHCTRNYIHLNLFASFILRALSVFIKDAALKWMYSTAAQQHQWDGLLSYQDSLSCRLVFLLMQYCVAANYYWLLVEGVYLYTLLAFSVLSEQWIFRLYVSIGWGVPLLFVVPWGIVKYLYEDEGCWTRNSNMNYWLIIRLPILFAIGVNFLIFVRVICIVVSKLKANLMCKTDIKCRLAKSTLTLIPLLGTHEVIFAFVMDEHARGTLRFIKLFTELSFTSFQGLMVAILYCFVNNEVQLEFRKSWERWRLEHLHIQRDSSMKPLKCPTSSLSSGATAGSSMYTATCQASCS", "assay": "qHTS of GLP-1 Receptor Inverse Agonists (Inhibition Mode); also: nearly all actives have a fitted effect of over 55% in size", "details": "HEK293 GLP-1R CRE-luciferase, luminescence, 24 h, GLP-1R form is constitutively active; activity change, negative = inhibition: at 38.3 µM (top of the series) unless noted", "how_it_was_run": "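Assay principle: reduced luminescence from a cAMP-responsive reporter in HEK293 cells co-expressing a constitutively active GLP-1R. Conditions: 24 hr compound incubation, 37 deg C, 5% CO2.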", "values": [
      {"smiles": "Cc1ccc2onc(CC(=O)N3CCN(c4ccccc4F)CC3)c2c1", "Potency": "inconclusive [inhibitor, single point]"},
      {"smiles": "CC(=O)N1c2ccccc2CC1C(=O)N1CCN(c2cccc(C)c2C)CC1", "note": "(centres undefined)", "Potency": "inconclusive [inhibitor, partial curve, poor fit]"},
      {"smiles": "CC(=O)Nc1ccc2nc(CN3CCC(CO)(CCc4ccccc4)CC3)ccc2c1", "Potency": "inconclusive [inhibitor, full curve]"},
      {"smiles": "O=C(N/N=C/c1ccco1)C1CC1c1ccccc1", "note": "(centres undefined)", "activity change, negative = inhibition": "inactive: 2.55%"},
      {"smiles": "Nc1nonc1-n1nnc(C(=O)N/N=C/c2ccc(OCc3cccc(Cl)c3)cc2)c1CN1CCCCC1", "activity change, negative = inhibition": "inactive: 9.4%"},
      {"smiles": "O=C(CCc1nnc(C2CCCCC2)o1)N1CCN(c2ccccc2F)CC1", "Potency": "inconclusive [inhibitor, single point]"},
      {"smiles": "CCOC(=O)c1ccccc1N/C=C/C(=O)c1ccccc1", "Potency": "inconclusive [inhibitor, single point]"},
      {"smiles": "CCCn1c(Oc2ccccc2)nc2c1c(=O)n(C)c(=O)n2C", "activity change, negative = inhibition": "inactive: 11.4%"},
      {"smiles": "O=C(CSc1ncccc1C(=O)O)c1cccc(C(F)(F)F)c1", "activity change, negative = inhibition": "inactive: 27.1%"},
      {"smiles": "CN(C)c1ccc(/C=C(/C#N)C(=O)NCc2ccccc2)o1", "activity change, negative = inhibition": "inactive: 0%"},
      {"smiles": "COc1ccc(NC(=O)CC2Nc3cccc4cccc(c34)NC2=O)cc1", "note": "(centres undefined)", "Potency": "inconclusive [inhibitor, single point]"},
      {"smiles": "O=C(Nc1ccccc1C(F)(F)F)Nc1cccc2ccccc12", "activity change, negative = inhibition": "inactive: -29.6%"},
      {"smiles": "Clc1ccc(N2CCN(Cc3nnc(-c4ccc5c(c4)OCO5)o3)CC2)cc1", "activity change, negative = inhibition": "inactive: -10.7%"},
      {"smiles": "CN(Cc1ccccc1)CC(O)COc1ccc(CNCCOc2cccnc2)cc1", "note": "(centres undefined)", "Potency": "inconclusive [inhibitor, full curve, poor fit]"},
      {"smiles": "Cc1cnc(NC(=O)c2sc(Nc3ccccc3)nc2N)o1", "Potency": "inconclusive [inhibitor, single point]"},
      {"smiles": "CN(CCc1ccccc1)C(=O)c1cccc(NC(=O)Cc2ccc([N+](=O)[O-])cc2)c1", "Potency": "inconclusive [inhibitor, partial curve, poor fit]"},
      {"smiles": "Cc1ccc(N(CC(=O)NCCSc2nc3ccccc3s2)S(=O)(=O)c2ccccc2)c(C)c1", "Potency": "inconclusive [inhibitor, single point]"},
      {"smiles": "CCc1c(C(=O)Nc2ccc(C)c(C)c2)[nH]c(C)c1C(C)=O", "Potency": "inconclusive [inhibitor, single point]"},
      {"smiles": "CCOc1ccccc1CNC(=O)CCCn1c(=O)c2cccn2c2cccnc21", "activity change, negative = inhibition": "inactive: 5.5%"},
      {"smiles": "O=C(Nc1ccc(NC(=O)c2cccs2)cc1)c1cccs1", "activity change, negative = inhibition": "inactive: 15.6%"},
      {"smiles": "CCCOc1ccc(-c2cccc(NS(=O)(=O)c3cccs3)c2)nn1", "activity change, negative = inhibition": "inactive: -2.85%"},
      {"smiles": "COc1ccc(N(CC(=O)Nc2cccc(N(C)S(C)(=O)=O)c2)S(=O)(=O)c2ccccc2)cc1Cl", "Potency": "inconclusive [inhibitor, partial curve, poor fit]"},
      {"smiles": "O=S(=O)(c1ccc(Br)cc1)c1nc(-c2ccco2)oc1SCc1ccccc1F", "Potency": "inconclusive [inhibitor, single point]"},
      {"smiles": "Cc1ccc(SCc2nc(N)nc(Nc3ccccc3C)n2)c(C)c1", "Potency": "inconclusive [inhibitor, partial curve]"},
      {"smiles": "CC(=O)CC1c2cc(F)ccc2C=C(c2ccsc2)N1c1ccc(C#CC2(O)CCCCC2)cc1", "note": "(centres undefined)", "Potency": "inconclusive [inhibitor, partial curve, poor fit]"},
      {"smiles": "O=C1CC(c2ccco2)CC(O)=C1C=Nc1ccccc1-c1ccccc1", "note": "(centres undefined)", "Potency": "inconclusive [inhibitor, partial curve, poor fit]"},
      {"smiles": "CC(=O)c1cc(-c2ccc(F)cc2)n(CC(=O)NC2CCCCCC2)c1C", "activity change, negative = inhibition": "inactive: 6.18%"},
      {"smiles": "Cc1c(C(=O)Nc2ccc(S(=O)(=O)Nc3ncccn3)cc2)oc2ccc(Cl)cc12", "activity change, negative = inhibition": "inactive: 9.78%"},
      {"smiles": "COc1ccc(OC)c(-c2cc(C(=O)Nc3c(C)nn(Cc4ccc(Cl)cc4)c3C)no2)c1", "activity change, negative = inhibition": "inactive: 0%"},
      {"smiles": "O=C(Nc1nc(-c2ccc(Cl)s2)cs1)c1cccs1", "Potency": "inconclusive [inhibitor, single point]"},
      {"smiles": "CC(Oc1cccc(Cl)c1)C(=O)Nc1ccccc1N1CCCCC1", "note": "(centres undefined)", "Potency": "inconclusive [inhibitor, partial curve, poor fit]"},
      {"smiles": "CC(Sc1ncnc2sc(-c3ccccc3)cc12)C(=O)NCC1CCCO1", "note": "(centres undefined)", "Potency": "inconclusive [inhibitor, partial curve, poor fit]"},
      {"smiles": "CCn1c(C)c(C2=CCN(S(=O)(=O)c3ccc(C)cc3)CC2)c2ccccc21", "Potency": "inconclusive [inhibitor, single point]"},
      {"smiles": "O=C(c1cccs1)N1C[C@H](O)[C@@H](n2cc(-c3ccc(F)cc3)nn2)C[C@@H]1c1ccccc1", "Potency": "inconclusive [inhibitor, single point]"},
      {"smiles": "Cc1ccccc1-n1sc2cc(F)ccc2c1=O", "Potency": "inconclusive [inhibitor, partial curve, poor fit]"},
      {"smiles": "Cc1ccccc1-n1nnnc1SCC(=O)NCC1(N2CCOCC2)CCCCC1", "Potency": "inconclusive [inhibitor, single point]"},
      {"smiles": "COc1ccc(-c2onc(C)c2C)cc1S(=O)(=O)Nc1ccc(OC(F)(F)F)cc1", "Potency": "active: 12.6 µM"},
      {"smiles": "CCC1CCCCN1C(=O)c1sc2ncnc(N(CC)CC)c2c1C", "note": "(centres undefined)", "Potency": "inconclusive [inhibitor, single point]"},
      {"smiles": "COc1cc(CNC(=O)c2cc(-c3ccc(F)cc3C)n[nH]2)cc(OC)c1", "Potency": "inconclusive [inhibitor, single point]"},
      {"smiles": "CCNC(=O)NC(=O)C(C)OC(=O)c1ccc(-n2nc(SC)sc2=S)cc1", "note": "(centres undefined)", "Potency": "inconclusive [inhibitor, single point]"},
      {"smiles": "O=C(Cc1cccc(C(F)(F)F)c1)NCc1ccc(Cl)cc1", "Potency": "inconclusive [inhibitor, single point]"},
      {"smiles": "CCOC(=O)c1cccc(NC(=O)c2cc(S(=O)(=O)N3CCCC3)cn2C)c1", "activity change, negative = inhibition": "inactive: 0.449%"},
      {"smiles": "CCCCCCCCNCCS(=O)(=O)NCCCCCCCC", "activity change, negative = inhibition": "inactive: 3.18%"},
      {"smiles": "CC(=O)Nc1cccc(C(=O)N2CCN(S(=O)(=O)c3ccc4ccccc4c3)CC2)c1", "activity change, negative = inhibition": "inactive: 33.5%"}
    ]}
  ]
}
